Data on three molecules can be found in PMC12624062.

Results are given in words; binding and its absence hold for the method and conditions named. In cells and extracts the contact can be indirect. Some results given as binding are weak or reduced against the parent protein; the word gives no strength.

Test [1] has as its target T1, ASZ1 (mouse) (UniProt Q8VD46).
T1 sequence: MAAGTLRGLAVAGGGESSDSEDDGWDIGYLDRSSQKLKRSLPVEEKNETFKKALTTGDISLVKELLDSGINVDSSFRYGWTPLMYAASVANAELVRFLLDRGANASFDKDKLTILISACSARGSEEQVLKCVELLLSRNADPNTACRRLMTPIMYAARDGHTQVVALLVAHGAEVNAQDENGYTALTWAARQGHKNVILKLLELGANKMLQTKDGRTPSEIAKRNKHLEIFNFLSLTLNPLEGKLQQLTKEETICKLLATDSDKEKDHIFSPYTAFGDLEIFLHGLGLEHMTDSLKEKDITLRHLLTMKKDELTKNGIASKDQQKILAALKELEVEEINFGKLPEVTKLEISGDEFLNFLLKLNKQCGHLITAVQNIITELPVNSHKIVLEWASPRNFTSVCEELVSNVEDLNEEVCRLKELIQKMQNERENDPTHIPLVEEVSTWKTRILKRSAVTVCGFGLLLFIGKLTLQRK
Description: co-IP; 293T cells transiently transfected with tagged mouse proteins; lysis in 150 mM NaCl, 50 mM Tris-HCl pH 7.4, 1% Triton X-100, 1 mM EDTA; Protein A/G agarose beads and antibodies overnight at 4 °C; washes with 300 mM NaCl; Western blot for Flag, HA, GFP; some panels with the methyltransferase inhibitor MTA. A general note: In western blotting, separated proteins are transferred to a membrane and probed.

For test [2], the target named is PIWIL2 (endogenous, mouse testis) (mouse (endogenous in testis)) (UniProt Q8CDG1). Description: co-IP; adult mouse testis lysates with or without RNase A (250 μg/mL, then 125 μg/mL more); lysis buffer A (150 mM KCl, 25 mM Tris-HCl pH 7.4, 0.5% NP-40, 5 mM EDTA, 0.5 mM DTT); IP with PIWIL2, ASZ1 or TDRD1 antibody; Western blot.

B1: PIWIL2 middle region (201–600 aa) (domain or fragment, UniProt Q8CDG1 201-600)
chain: VLTMERKEKELLVKQGSKGTPQSLGLNLIKIQCHNEAVYQYHVTFSPSVECKSMRFGMLKDHQSVTGNVTAFDGSILYLPVKLQQVVELKSQRKTDDAEISIKIQLTKILEPCSDLCIPFYNVVFRRVMKLLDMKLVGRNFYDPTSAMVLQQHRLQIWPGYAASIRRTDGGLFLLADVSHKVIRNDSVLDVMHAIYQQNKEHFQDECSKLLVGSIVITRYNNRTYRIDDVDWNKTPKDSFVMSDGKEITFLEYYSKNYGITVKEDDQPLLIHRPSERQNNHGMLLKGEILLLPELSFMTGIPEKMKKDFRAMKDLTQQINLSPKQHHGALECLLQRISQNETASNELTRWGLSLHKDVHKIEGRLLPMERINLRNTSFVTSEDLNWVKEVTRDASILTIP
For B1, the binding result in test [1] was “binds”.

B2: ASZ1 (endogenous, mouse testis) (protein, UniProt Q8VD46 1-475)
chain: T1 sequence
Take B2: in test [2], the binding entry is given as “binds”.

B3: MOV10L1 (protein, UniProt Q99MV5 1-1187)
chain: MIDDLIYFSNDAVTSTVLLNVGQEVIAVVEENKVSNGLKAIRVEAVSDKWEDDSKNSSKGLSDSSPRVLIGCVTSMLEGAGYISQTTYFSLESVCEGFHPCKGDWVEAEYWIRPGTWSSEAISVKPLRYKRVDKVCISSLCGRNGVIEDSIFFSLDSLKLPEGYIPRRHDIVNAVVVESSQSCYIWRALCMTPVKRDATLGEAPQEPYGALLLKNKGDIEVTRMTSFGTLKEGESKSIVIWIENKGKFSRELVSCRLANWDKAHQFRFETQGRSKSCPGAAAGSVPEGENVNSLNHHREDKTDEIPESRLANSTEISPDGCACKEESREKGNTPEKQEPEPGGLIPPGEKTHIVVTCSAKNPGRCKELLLLCFSDFLIGRHLEVSVVSSEEALIAVREPFSWKKPKSSQTLVSAKTTVVVTTQKRNSRRQLPSFLPQYPIPDRLKKCVEQKIDILTFQPLLAELLNMSNYKEKFSTLLWLEEIHAEIELKEYNMSRVVLKRKGDLLVLEVPGLAESRPSLYAGDKLILKSQEYNGHVIEYIGYVMEIHEEDVTLKLNPGFEQMYNFEPMDVEFTYNRTTSRRCHYALEQVIHLGVKVLFPEEIILQSPQVTGNWSLAQDTKNDGQSITNITRNDGQSMTKVTRNDSQSITNIIRNDGQSITNVTRNDGQPITKVTRNNSQSITNITRNDGQPITKNKKTVKDQTKHTTEERHVGTTDQPEKASSTAETMDEIQIPKARDKEFFNPVLNENQKLAVRRILSGDCRPLPYILFGPPGTGKTVTIIEAVLQVHYALPDSRILVCAPSNSAADLVCLRLHESKVPKPAAMVRVNATCRFEETIIDAIKPYCRDGEDIWRASRFRIIITTCSSAGLFYQIGVRVGYFTHVFVDEAGQASEPECLIPLGLISDINGQIVLAGDPMQLGPVIKSRLAMAYGLNVSMLERLMSRPAYLRDENAFGACGAYNPLLVTKLVKNYRSHSALLALPSRLFYHRELEVCADPKVVTSLLGWEKLPRKGFPLIFHGVRGNEAREGRSPSWFSPAEAVQVMRYCCLLARSVSSQVSSKDIGVITPYRKQVEKIKILLRNVDLTDIKVGSVEEFQGQEYLVIVISTVRSNEDRFEDDRYFLGFLSNSKRFNVAITRPKALLIILGNPHVLVRDPCFGALLEYSVSNGVYTGCDLPPELQALQK
Take B3: the binding entry in test [1] is on record as “binds weakly”.
